{
  "source": "PubChem BioAssay AID504333",
  "about": "(National Center for Advancing Translational Sciences (NCATS), 2011)",
  "note": "About 16,000 (4.4%) of roughly 360,000 compounds were called active. The shares of active, inactive and inconclusive entries below differ from those in the screen. Calls follow the shape of the dose curve; as a rule, active = well fitted inhibition curve with a large enough effect; inconclusive = small, poorly fitted or top-dose-only effect; inactive = no such curve, though single readings can be large or run the other way. A potency beside an inconclusive call is a rough fit, not a confirmed value. Potency is read from the fitted curve at half-maximal effect; tags tell the direction and shape of the fitted curve.",
  "data": [
    {"biological_target": "Bromodomain adjacent to zinc finger domain protein 2B (Homo sapiens) (UniProt Q9UIF8)", "sequence (Q9UIF8 whole entry, looked up, the tested form may be a part)": "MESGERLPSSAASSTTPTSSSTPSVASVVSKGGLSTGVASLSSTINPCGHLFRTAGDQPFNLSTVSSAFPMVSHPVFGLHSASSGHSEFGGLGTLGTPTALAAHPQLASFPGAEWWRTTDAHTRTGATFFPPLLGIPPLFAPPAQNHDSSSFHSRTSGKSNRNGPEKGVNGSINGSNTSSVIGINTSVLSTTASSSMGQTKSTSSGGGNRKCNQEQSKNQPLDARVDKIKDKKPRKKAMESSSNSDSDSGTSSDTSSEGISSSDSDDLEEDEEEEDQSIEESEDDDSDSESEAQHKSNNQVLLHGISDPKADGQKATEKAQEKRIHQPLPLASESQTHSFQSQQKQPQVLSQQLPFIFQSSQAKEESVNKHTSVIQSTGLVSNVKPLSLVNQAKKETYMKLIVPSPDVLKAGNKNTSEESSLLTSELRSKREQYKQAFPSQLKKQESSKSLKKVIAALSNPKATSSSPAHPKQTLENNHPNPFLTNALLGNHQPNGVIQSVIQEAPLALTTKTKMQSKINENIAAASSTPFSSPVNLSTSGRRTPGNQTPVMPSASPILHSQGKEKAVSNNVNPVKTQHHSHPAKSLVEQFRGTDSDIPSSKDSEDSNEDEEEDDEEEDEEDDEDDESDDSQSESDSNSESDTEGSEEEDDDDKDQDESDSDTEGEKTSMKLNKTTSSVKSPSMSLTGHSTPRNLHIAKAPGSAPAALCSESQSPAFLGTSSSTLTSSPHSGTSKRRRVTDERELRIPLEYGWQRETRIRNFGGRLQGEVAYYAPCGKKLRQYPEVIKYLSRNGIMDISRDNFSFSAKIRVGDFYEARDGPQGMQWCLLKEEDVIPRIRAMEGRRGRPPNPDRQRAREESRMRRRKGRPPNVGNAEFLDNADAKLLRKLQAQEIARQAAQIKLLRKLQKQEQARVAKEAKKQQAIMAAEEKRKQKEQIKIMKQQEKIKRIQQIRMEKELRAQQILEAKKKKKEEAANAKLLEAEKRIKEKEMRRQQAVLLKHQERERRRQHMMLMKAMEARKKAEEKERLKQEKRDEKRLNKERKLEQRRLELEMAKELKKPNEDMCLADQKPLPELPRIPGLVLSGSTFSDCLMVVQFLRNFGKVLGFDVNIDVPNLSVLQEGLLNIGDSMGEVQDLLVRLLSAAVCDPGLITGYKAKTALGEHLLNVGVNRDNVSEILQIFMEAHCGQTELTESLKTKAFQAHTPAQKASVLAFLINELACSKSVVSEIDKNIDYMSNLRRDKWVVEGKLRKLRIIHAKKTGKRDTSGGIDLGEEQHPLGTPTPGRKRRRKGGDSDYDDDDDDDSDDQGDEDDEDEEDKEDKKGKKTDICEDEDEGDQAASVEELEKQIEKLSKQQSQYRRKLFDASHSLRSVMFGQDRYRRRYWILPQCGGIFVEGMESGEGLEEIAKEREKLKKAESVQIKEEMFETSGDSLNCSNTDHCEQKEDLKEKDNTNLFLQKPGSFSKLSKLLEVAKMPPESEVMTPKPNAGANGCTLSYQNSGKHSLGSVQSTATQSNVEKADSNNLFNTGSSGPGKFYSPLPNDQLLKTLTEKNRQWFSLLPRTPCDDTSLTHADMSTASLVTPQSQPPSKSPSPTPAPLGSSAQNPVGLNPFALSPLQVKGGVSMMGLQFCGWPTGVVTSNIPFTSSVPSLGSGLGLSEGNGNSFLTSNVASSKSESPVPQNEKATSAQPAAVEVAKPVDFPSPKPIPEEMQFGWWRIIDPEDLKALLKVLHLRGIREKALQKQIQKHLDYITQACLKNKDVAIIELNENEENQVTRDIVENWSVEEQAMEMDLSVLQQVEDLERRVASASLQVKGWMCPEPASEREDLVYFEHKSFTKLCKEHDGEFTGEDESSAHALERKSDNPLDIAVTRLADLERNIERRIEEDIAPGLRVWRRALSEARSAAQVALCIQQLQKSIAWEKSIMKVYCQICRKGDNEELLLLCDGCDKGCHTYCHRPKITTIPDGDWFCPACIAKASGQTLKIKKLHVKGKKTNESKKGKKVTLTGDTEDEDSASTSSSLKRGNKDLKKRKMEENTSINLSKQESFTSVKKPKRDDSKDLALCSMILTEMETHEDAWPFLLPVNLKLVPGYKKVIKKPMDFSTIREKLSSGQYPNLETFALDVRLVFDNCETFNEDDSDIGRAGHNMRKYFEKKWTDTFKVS", "assay": "qHTS Assay for Inhibitors of BAZ2B; also: nearly all actives have a fitted effect of over 60% in size", "conditions": "AlphaScreen BAZ2B-H3K14Ac peptide displacement; series mostly up to 114 µM", "in_short": "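In this displacement format the biotinylated H3(5-23) peptide acetylated at Lys14 serves as ligand at 50 nM, with BAZ2B at 50 nM in PBS pH 7.4 containing 0.01% Tween-20. Donor and acceptor beads are 10 ug/mL final.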", "values": [
      {"smiles": "CN(C)CCCN(C(=O)c1ccc(S(=O)(=O)N2CCCCCC2)cc1)c1nc2cc3c(cc2s1)OCCO3", "Potency": "inconclusive: 79.4 µM [inhibitor, single point]"},
      {"smiles": "CNC(=S)N(CCc1c(C)[nH]c2ccc(Cl)cc12)Cc1cccs1", "Potency": "inconclusive: 35.5 µM [inhibitor, partial curve]"},
      {"smiles": "O=C(CN1C(=O)CSC1=O)Nc1ccc(F)c(F)c1F", "Potency": "inactive"},
      {"smiles": "COC(=O)c1ccccc1NC1=C/C(=N\\S(=O)(=O)c2ccc(C(=O)O)cc2)c2ccccc2C1=O", "Potency": "active: 8.91 µM"},
      {"smiles": "N#Cc1c(-c2ccc(F)cc2)nc(-c2ccccc2)[nH]c1=O", "Potency": "inconclusive: 100 µM [inhibitor, partial curve, poor fit]"},
      {"smiles": "CCc1ccccc1OCC(=O)Nc1ccc(N2CCCC2)cc1C", "Potency": "inconclusive: 50.1 µM [inhibitor, partial curve]"},
      {"smiles": "COc1ccc(Cc2nnc(SCC(=O)N(C)c3ccccc3)o2)cc1", "Potency": "inactive"},
      {"smiles": "CCOc1ccc(N2CC(C(=O)Nc3ccccc3N3CCCC3)CC2=O)cc1", "note": "(stereo not drawn)", "Potency": "inconclusive: 79.4 µM [inhibitor, single point]"},
      {"smiles": "C=CCn1c(N)c(C(=O)Nc2ccccc2OC)sc1=S", "Potency": "inconclusive: 44.7 µM [inhibitor, partial curve]"},
      {"smiles": "O=C(NCC1(c2ccccc2)CCCC1)C(=O)Nc1cccc(C(F)(F)F)c1", "Potency": "inactive"},
      {"smiles": "Cc1ccc(N(CCC#N)C(=O)CSc2ccc3c(c2)OCCO3)cc1", "Potency": "inactive"},
      {"smiles": "N#Cc1nc(COc2ccc(Cl)cc2)oc1N1CCCCCC1", "Potency": "active: 11.2 µM"},
      {"smiles": "S=c1[nH]nc(-c2ccc(Br)cc2)n1-c1ccc2c(c1)OCCO2", "Potency": "inconclusive: 50.1 µM [inhibitor, partial curve]"},
      {"smiles": "COc1ccc(N(C(=O)C(C)C)S(=O)(=O)c2ccc3c(c2)n(C)c(=O)n3C)cc1", "Potency": "inconclusive: 89.1 µM [inhibitor, single point]"},
      {"smiles": "COc1ccc(-c2cc(-c3ccccc3)nc(SC(C)C(=O)O)c2C#N)cc1", "note": "(stereo not drawn)", "Potency": "inconclusive: 89.1 µM [inhibitor, single point]"},
      {"smiles": "CN(C)c1ccc(CN(C(=O)COc2ccc(F)cc2)C2CCS(=O)(=O)C2)cc1", "note": "(stereo not drawn)", "Potency": "inconclusive: 89.1 µM [inhibitor, single point]"},
      {"smiles": "Cc1cc(C(=O)NCC(C)C)c2ccccc2n1", "Potency": "inactive"},
      {"smiles": "Cc1ccc(-n2sc3ccccc3c2=O)cc1S(=O)(=O)N1CCCCC1", "Potency": "active: 5.62 µM"},
      {"smiles": "COc1cccc(-c2nnc(NC(=O)c3ccc(S(=O)(=O)N4CCOCC4)cc3)o2)c1", "Potency": "inconclusive: 89.1 µM [inhibitor, single point]"},
      {"smiles": "COc1cc(C2/C(=C(/O)c3ccc(F)cc3)C(=O)C(=O)N2CCCC(=O)O)ccc1O", "note": "(stereo not drawn)", "Potency": "active: 56.2 µM"},
      {"smiles": "COc1ccc(N2CCN(C(=O)COC(=O)c3c(-c4ccccc4)noc3C)CC2)cc1", "Potency": "inconclusive: 79.4 µM [inhibitor, single point]"},
      {"smiles": "CCCCN(c1ccccc1)c1ncnc2c1cnn2-c1ccc(Cl)cc1", "Potency": "inactive"},
      {"smiles": "Cc1ccc(CN(Cc2ccco2)c2cnc(S(C)(=O)=O)nc2C(=O)Nc2ccc(Br)cc2)o1", "Potency": "inconclusive: 89.1 µM [inhibitor, single point]"},
      {"smiles": "CCN(CC)c1ccc(/C=N/N2CCN(c3ccccc3OC)CC2)cc1", "Potency": "active: 31.6 µM"},
      {"smiles": "c1ccc(-[n+]2nc(Nc3cccc4ccccc34)sc2-c2c3ccccc3cc3ccccc23)cc1", "Potency": "active: 3.55 µM"},
      {"smiles": "Cc1oc2ccc(Br)cc2c(=O)c1-c1nn[nH]n1", "Potency": "active: 56.2 µM"},
      {"smiles": "CCc1ccc(OCC2c3cc(OC)c(OC)cc3CCN2C(=S)NC)cc1", "note": "(stereo not drawn)", "Potency": "inconclusive: 17.8 µM [inhibitor, full curve]"},
      {"smiles": "COC(=O)C(C)N1C(=O)S/C(=C/c2cc(C)n(-c3ccccn3)c2C)C1=O", "note": "(stereo not drawn)", "Potency": "inconclusive: 50.1 µM [inhibitor, partial curve]"},
      {"smiles": "Cc1ccc(C(=O)Nc2ccc(N3CCCC3)cc2)c(C)c1", "Potency": "inconclusive: 79.4 µM [inhibitor, single point]"},
      {"smiles": "CCOCCOC(=O)c1[nH]c2c(c1C)C(=O)CC(c1ccc(N(C)C)cc1)C2", "note": "(stereo not drawn)", "Potency": "inconclusive: 35.5 µM [inhibitor, full curve]"},
      {"smiles": "CCOc1ccc(-c2cc3c(=O)n(Cc4nc(-c5cccc(OC)c5OC)oc4C)ccn3n2)cc1Cl", "Potency": "inactive"},
      {"smiles": "O=C(Nc1cccc(S(=O)(=O)NC2=NCCC2)c1)C1CC(=O)N(c2ccc3c(c2)OCCO3)C1", "note": "(stereo not drawn)", "Potency": "inconclusive: 50.1 µM [inhibitor, partial curve]"},
      {"smiles": "CCOc1ccc(NC(=O)CCCN2C(=O)C(c3ccccc3)Oc3cccnc32)cc1", "note": "(stereo not drawn)", "Potency": "inactive"},
      {"smiles": "Cc1ccc(NC(=S)NNC(=O)c2c([N+](=O)[O-])c(C)nn2C)cc1", "Potency": "inactive"},
      {"smiles": "COc1ccc(N2CCN(c3cc(C)c4ccccc4n3)CC2)cc1", "Potency": "inconclusive: 8.91 µM [inhibitor, full curve, poor fit]"},
      {"smiles": "Cn1c(=O)oc2cc(S(=O)(=O)NCCC(=O)Nc3ccc(F)c(Cl)c3)ccc21", "Potency": "inconclusive: 89.1 µM [inhibitor, single point]"},
      {"smiles": "CN(/N=C\\c1ccc(O)c(O)c1)c1nc(-c2ccccc2)cc(-c2ccccc2)n1", "Potency": "active: 39.8 µM"},
      {"smiles": "CC[C@@]12C(=O)N(c3cccc(F)c3)C(=O)N1[C@H](c1ccc(Br)cc1)[C@@H]1C(=O)N(C(C)(C)C)C(=O)[C@@H]12", "Potency": "inactive"},
      {"smiles": "CCOC(=O)c1oc2c(O)c(O)ccc2c(=O)c1-c1nncn1-c1ccccc1", "Potency": "inconclusive: 89.1 µM [inhibitor, single point]"},
      {"smiles": "CCOc1cccc2sc(N(CCCN(C)C)C(=O)c3ccc(S(=O)(=O)N4CCc5ccccc5C4)cc3)nc12", "Potency": "inactive"},
      {"smiles": "Cc1ccc(OCC(O)CN2CC3(C)CC2CC(C)(C)C3)cc1", "note": "(stereo not drawn)", "Potency": "inconclusive: 79.4 µM [inhibitor, single point]"},
      {"smiles": "Cc1ccc(-c2nc3ccc(NS(=O)(=O)c4ccccc4)cc3[nH]2)o1", "Potency": "inconclusive: 89.1 µM [inhibitor, single point]"},
      {"smiles": "CCc1ccc(CN(Cc2ccco2)C(=O)c2cc(-c3ccc(Cl)cc3)on2)cc1", "Potency": "inactive"},
      {"smiles": "Cc1ccc(S(=O)(=O)Cn2nnnc2C(c2ccccn2)N2CCN(c3ccccc3)CC2)cc1", "note": "(stereo not drawn)", "Potency": "inconclusive: 89.1 µM [inhibitor, single point]"},
      {"smiles": "CCOc1ccc(-c2nonc2NC(=O)c2ccccc2C)cc1", "Potency": "inactive"},
      {"smiles": "CCOC(=O)C1=C(C)N(CC(C)C)C(=O)/C1=C\\c1cccs1", "Potency": "active: 11.2 µM"},
      {"smiles": "CC(=O)c1ccc(N2CCN(S(=O)(=O)c3cccc(S(=O)(=O)N4CCOCC4)c3)CC2)cc1", "Potency": "inconclusive: 12.6 µM [inhibitor, full curve]"},
      {"smiles": "COc1ccc(-c2nn(CCC(=O)O)cc2/C=C2\\SC(N)=NC2=O)cc1", "Potency": "inconclusive: 89.1 µM [inhibitor, single point]"},
      {"smiles": "CN(CC(=O)Nc1cccc(F)c1)C(=O)/C=C/c1ccc2ccccc2n1", "Potency": "inconclusive: 70.8 µM [inhibitor, partial curve]"},
      {"smiles": "Cc1nc(N2CCN(c3ccccn3)CC2)c2c(C)c(C(=O)N3CCN(c4ccc(F)cc4)CC3)sc2n1", "Potency": "inconclusive: 22.4 µM [inhibitor, full curve]"},
      {"smiles": "CN(NC(=O)c1ccccc1F)c1ncccc1[N+](=O)[O-]", "Potency": "inactive"},
      {"smiles": "CC(=O)c1c(C)[nH]c(C(=O)OCC(=O)Nc2cc(Cl)ccc2[N+](=O)[O-])c1C", "Potency": "inconclusive: 39.8 µM [inhibitor, partial curve]"},
      {"smiles": "COc1ccccc1Nc1nc(-c2cccs2)cs1", "Potency": "inconclusive: 50.1 µM [inhibitor, partial curve]"},
      {"smiles": "Cc1cccc(NC(=S)N/N=C/C(C)c2ccccc2)c1C", "note": "(stereo not drawn)", "Potency": "inconclusive: 79.4 µM [inhibitor, single point]"},
      {"smiles": "O=C(c1nc(-c2ccc(Cl)cc2)n2c1CCCCC2)N1CCN(c2ccc(F)cc2)CC1", "Potency": "active: 39.8 µM"},
      {"smiles": "O=C(Cc1cccs1)N(Cc1ccco1)C1(C(=O)NC2CCCCC2)CCCCC1", "Potency": "inconclusive: 89.1 µM [inhibitor, single point]"},
      {"smiles": "O=[N+]([O-])c1cccc(S(=O)(=O)NCc2ccncc2)c1", "Potency": "inactive"},
      {"smiles": "Cc1cc(N2CCN(C)CC2)nc(N2CCOCC2)n1", "Potency": "inactive"},
      {"smiles": "O=C1NC(=S)N/C1=C/c1cccn1-c1ccc([N+](=O)[O-])cc1", "Potency": "inconclusive: 56.2 µM [inhibitor, partial curve]"},
      {"smiles": "Cc1ccc(NC(=S)Nc2cccc(S(=O)(=O)Nc3c(C)n(C)n(-c4ccccc4)c3=O)c2)cc1", "Potency": "inactive"},
      {"smiles": "CN(C[C@@H](CC1CCCCC1)N(C[C@H](Cc1ccccc1)N(CCc1ccccc1)N=O)N=O)N=O", "Potency": "inconclusive: 79.4 µM [inhibitor, single point]"},
      {"smiles": "CCN(CC)c1ccc(NC(=O)CSc2nc3ccccc3c(=O)n2-c2cc(S(=O)(=O)N(C)C)ccc2C)cc1", "Potency": "inconclusive: 8.91 µM [inhibitor, full curve]"},
      {"smiles": "O=S(=O)(c1ccccc1)c1nc(-c2ccc(F)cc2)oc1N1CCOCC1", "Potency": "inconclusive: 79.4 µM [inhibitor, single point]"},
      {"smiles": "Nc1ncnc2c1c(-c1ccc(Oc3ccccc3)cc1)cn2C1CCCC1", "Potency": "active: 39.8 µM"},
      {"smiles": "CCCc1nc2c(s1)CCc1onc(-c3ccc(Cl)cc3)c1-2", "Potency": "inactive"},
      {"smiles": "CCCCC1CCc2[nH]nc(C(=O)O)c2C1", "note": "(stereo not drawn)", "Potency": "inconclusive: 89.1 µM [inhibitor, single point]"},
      {"smiles": "CCN(CC)S(=O)(=O)c1ccc(N2CCCC2)c(NC(=O)Cc2c(F)cccc2Cl)c1", "Potency": "inconclusive: 70.8 µM [inhibitor, single point]"},
      {"smiles": "CCOC(=O)c1c(C)[nH]c(C)c1C(=O)COC(=O)c1cc2ccccc2cc1O", "Potency": "inconclusive: 50.1 µM [inhibitor, partial curve]"}
    ]}
  ]
}
